Experimental findings from publication PMC12040169 (PLOS Biology, 2025) are described below.

The other results are listed elsewhere or left out.

The test system of the assay is T1, C. trachomatis L2/434/Bu expressing GFP (CTL2-GFP).
T1 construct: L2/434/Bu GFP intracellular growth in HeLa cells
Details: species or system HeLa; C. trachomatis total inclusion area by high-content imaging, normalised to DMSO. As to conditions: total inclusion area; 28.5 h, 10 µM; inhibitor. The gist of the method:
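Host cell viability was gauged from Hoechst-stained nuclei counts, while chlamydial growth was taken from total inclusion area and inclusion number per well. Cells were fixed and imaged by high-content microscopy once bulk GFP and resorufin fluorescence had been measured.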
On to `O=C(COc1ccc(Cl)cc1Br)NNC(=O)c1ccccc1O` [CBK262943], for which the “% of control remaining” value amounted to 115.822.
For `Cc1ccc(Cl)cc1C(=O)N[C@H]1C[C@@H](c2nnc(CO)n2C2CC2)C1` [CBK306746] the value was 66.6027.
Under `Cn1ncc(Cl)c1C1CCCCCN1C(=O)c1ccco1` (stereo not drawn) [CBK284915] stands 78.5537; under `COc1ccc(C(C)C)cc1-c1cncc(N[C@H](C)c2ccccc2)n1` [CBK065535], 88.5027; under `Cc1c(S(=O)(=O)Nc2ccc(-c3ccc(F)cc3)cc2)cnn1C` [CBK281418], 87.5675.
Under `CC(=O)N1CCc2sccc2C1c1ccc(NC(=O)c2cccc(F)c2)cc1` (stereo not drawn) [CBK286466] stands 78.0156; under `O=C(COC(=O)c1ccc2c(c1)C(=O)N(c1ccc(Oc3ccccc3)cc1)C2=O)c1ccc(Br)cc1` [CBK261607], 87.7412.
On to `CC(Sc1nc2ccccc2[nH]1)c1nc2ccccc2[nH]1` (stereo not drawn) [CBK266502], for which the “% of control remaining” value was found to be 95.7177.
In the case of `CN(C(=O)c1ccccc1N)c1ccccc1` [CBK086716], the “% of control remaining” value is reported as 101.18.
Under `C=CCn1c(Cc2csc(NC(=O)c3cc(S(=O)(=O)NC)ccc3C)n2)n[nH]c1=S` [CBK297903] stands 95.1032; under `Cc1ccc(C2=CCN(CC(=O)N3CCc4ccccc43)CC2)o1` [CBK283918], 93.6565.
In the case of `CCOC(=O)C1(Cc2ccc(F)cc2F)CCCN(C(=O)CC)C1` (stereo not drawn) [CBK307012], the “% of control remaining” value amounted to 61.3641.
For `CC(NC(=O)CCc1ccncc1)c1ccc2c(c1)CCCO2` (stereo not drawn) [CBK281624] the value was 107.313; for `O=C(CN1CCCCCC1)N1CCCC1c1n[nH]cc1-c1cccc(Cl)c1` (stereo not drawn) [CBK283084], 89.3664.
Under `COc1cc(Cl)cc(CNCCO)c1OC(C)C` [CBK269196C] stands 73.5391; under `CCc1nc(CN(C)C2CCN(CC(=O)NCc3ccco3)C2)no1` (stereo not drawn) [CBK305328], 90.2925; under `Cc1ccccc1CN1CC[C@@H]2[C@H](C1)[C@@H](c1ccc(F)cc1)CN2C(=O)c1cccs1` [CBK285546], 73.0912.
Under `O=c1[nH]cnc2c1nc(S)n2C1OC(CO)C(O)C1O` (stereo not drawn) [CBK218834] stands 101.315; under `O=C(O)c1sccc1S(=O)(=O)NCc1ccc(Cn2cccn2)cc1` [CBK296707], 77.1744.
As to `O=c1cnn([C@H]2C[C@@H](O)[C@@H](CO)O2)c(=O)[nH]1` [CBK201162], the “% of control remaining” value was found to be 124.633.
Under `CC(=O)Nc1cccc(-c2cc(NCc3ccccc3)n3nccc3n2)c1` [CBK037153] stands 103.261.
Under `CCOC(=O)c1cn(CC)c2cc(N3CCSCC3)c(F)cc2c1=O` [CBK307143] stands 83.0452.
For `CCn1cc(CN(CCCn2ccnc2)Cc2cccc(F)c2)cn1` [CBK283124], the “% of control remaining” value turned out to be 72.9977.
For `C1CN2CCC1/C(=N\Nc1nnn[nH]1)C2` [CBK019005C], the “% of control remaining” value came out at 85.872.
For `Cc1ccc(C)c(NC(=O)c2cnc3sccn3c2=O)c1` [CBK287451] the value was 100.58; for `Cc1cccc(C(=O)NC(CC(C)C)c2nnc3n2CCNCC3)c1O` (stereo not drawn) [CBK307191], 91.6863; for `CN(C)S(=O)(=O)c1ccc2[nH]cc(CCN)c2c1` [CBK268522C], 142.575.
Consider `COc1ccc(CNC(=O)CCn2c(=O)oc3ccccc32)cc1` [CBK270138], for which the “% of control remaining” value turned out to be 91.7117.
Under `CN(C)CC1CN(C(=O)Nc2ncc(Cc3ccccc3Cl)s2)CCO1` (stereo not drawn) [CBK304107] stands 70.731; under `COc1ccccc1CC(=O)NC(CCSC)c1nnc2ccccn12` (stereo not drawn) [CBK306492], 75.2397.
For `COCc1cc(C[C@H]2CNCC[C@H]2CC(=O)N2CCc3ccccc3C2)no1` [CBK289144] the value was 90.2413; for `CC(Nc1nc(N2CCN(CCO)CC2)nc2ccccc12)c1ccccc1` (stereo not drawn) [CBK269427], 83.4971.
Under `O=C(Nc1ccccc1-c1nc2ccccc2[nH]1)c1ccncc1` [CBK270148] stands 99.4749; under `O=C(NC(c1ccccc1)c1ccco1)C1CCN(Cc2cccc(Cl)c2)CC1` (stereo not drawn) [CBK148295], 110.637; under `CC(=O)c1cc(C(=O)Nc2ccc(Oc3ccc4c(c3)OCO4)cc2)cs1` [CBK286327], 96.9057.
Take `CC1(C(=O)NS(=O)(=O)c2cccc(-c3nnco3)c2)CC1` [CBK304683]: the “% of control remaining” value stood at 63.2373.
For `Cc1ccc(C(=O)Nc2cc(C)nn2C)c(N2CCOCC2)n1` [CBK106221] the value was 93.859; for `COc1ccccc1C(CNC(=O)Nc1cc(C)on1)N(C)C` (stereo not drawn) [CBK305028], 92.4141; for `CC(=O)NCCSc1nc2cc(Cl)c(Cl)cc2nc1N1CCCC1` [CBK103701], 76.3012.
As for `Cc1nn(C)c(C)c1CCc1nc(CN2CCN(C)CC2)no1` [CBK306510], the “% of control remaining” value is recorded as 90.1771.
Under `FC(F)(F)c1ccc(CN2CCC(Oc3nccnc3OC3CCCCC3)CC2)cc1` [CBK082859T] stands 49.9625; under `COc1ccc(CC(=O)NCCc2nnc3ccccn23)cc1` [CBK304613], 23.5321; under `CN1CCN(CCOC(=O)N2CCN(C(c3ccccc3)c3ccccc3)CC2)CC1` [CBK200419], 82.9935.
For `COc1cccc2ncn(CCCn3ccnn3)c(=O)c12` [CBK306650], the “% of control remaining” value was determined as 42.25.
Take `CN(Cc1cccnc1)CC1CCCN(C(=O)Nc2ccc(Cl)cc2)C1` (stereo not drawn) [CBK305428]: the “% of control remaining” value is 52.6196.
Take `O=C1NC(=O)C(CC(=O)N2CCCC3(CCN(C(=O)c4cc(F)c(F)cc4F)C3)C2)N1` (stereo not drawn) [CBK131550]: the “% of control remaining” value is reported as 83.418.
`Cc1cc(NC(=O)CN(C)CCNC(=O)C2CCCC2)no1` [CBK305237]: the “% of control remaining” value amounted to 31.3358.
For `CC(=O)NC1(c2ccccc2)CCN(C(=O)Nc2ccccc2-c2ccccc2)CC1` [CBK286288] the value was 111.449; for `O=C(CSCc1ccccc1)Nc1ccc2c3c(cccc13)CC2` [CBK264916], 109.514.
For `Cc1ccc(S(N)(=O)=O)cc1N` [CBK024851] the value was 95.3062.
In the case of `CC(C)NC(=O)c1sc2ccccc2c1C1CCN(C(=O)CCc2ccccc2)C1` (stereo not drawn) [CBK285874], the “% of control remaining” value was 106.491.
`Oc1ccc(NCc2ccc(OCc3cccs3)cc2)cc1` [CBK266586]: the “% of control remaining” value is 99.5897.
For `C[C@H](Nc1cncc(-c2cccnc2)n1)c1ccccc1` [CBK065807] the value was 105.214.
For `Cc1ccc2ncnc(NC(CC(C)C)C(=O)O)c2c1` (stereo not drawn) [CBK275388] the value was 105.695; for `COc1cccc(C2=NO[C@@](CC(=O)O)(C(=O)NCc3ccccc3)C2)c1OC` [CBK286641], 74.1676.
For `O=C(N/N=C/c1ccc(OC(=O)c2cccs2)cc1)c1ccccn1` [CBK262178] the value was 90.2216; for `Cc1cccc(-n2ncc3c(=O)n(CC(=O)NC4CCCCC4)cnc32)c1C` [CBK287694], 143.673.
`O=C(O)c1cccc(CSc2nnc(-c3ccncc3)o2)c1` [CBK266310]: the “% of control remaining” value came to 124.243.
Turning to `OC12CCCON1OC(c1ccccc1)C2` (stereo not drawn) [CBK006752], the “% of control remaining” value amounted to 84.1889.
Under `Cc1ccc2c(c1)cc(C)c1nn(CC(=O)N3CCCC3)c(=O)n12` [CBK283872] stands 73.7572; under `Cc1ccc(S(=O)(=O)NC(C)(C)CN2CCN(C(c3ccccc3)c3ccccc3)CC2)cc1` [CBK262799], 107.575.
As to `COc1ccc(Nc2cccc(-c3ccc(CCC(=O)O)cc3)n2)cc1` [CBK036943], the “% of control remaining” value came out at 104.378.
Take `Cc1cc(C)cc(C(=O)N2CCC(NC(=O)c3cnn(C)c3)CC2)c1` [CBK305723]: the “% of control remaining” value is given as 54.7887.
For `CCCc1ccc(S(=O)(=O)N2CCN(CC(=O)Nc3cc(C(C)C)no3)CC2)cc1` [CBK295629] the value was 121.307; for `Cc1onc(-c2ccc(Cl)cc2)c1C(=O)N1CCN(C2CCN(C)CC2)CC1` [CBK149087], 68.3036.
`Clc1cc(Nc2cccc(OCc3ccccc3)c2)n2nccc2n1` [CBK037109]: the “% of control remaining” value is 108.395.
Turning to `COC(=O)[C@H]1CN(C(=O)c2cnn(C)c2C)C[C@@H]1c1ccc(F)cc1` [CBK283721], the “% of control remaining” value is 97.7554.
Turning to `O=C(Nc1ccc2cc(Br)cnc2n1)C(F)(F)F` [CBK063313], the “% of control remaining” value worked out at 116.335.
Under `COc1ccc(C=CC(=O)Nc2sc3c(c2C(=O)O)CCCC3)cc1OC` [CBK296103] stands 16.709; under `OCC1CCCN1c1cncc(-c2ccc3c(c2)OCO3)n1` (stereo not drawn) [CBK065908], 65.1673.
Under `CC(=O)Nc1ccc(S(=O)(=O)N2CCN(c3ccc([N+](=O)[O-])c(NC4CC4)c3)CC2)cc1` [CBK264439] stands 114.998; under `N=C(N)CCCOc1ccccc1-c1ccccc1` [CBK058057], 82.8176; under `NCCCOc1nc2ccccc2nc1N1CCCC1` [CBK115287], 95.968.
Under `CC(C)[C@@H](CO)NC(=O)c1cnc(-c2cccc(C(F)(F)F)c2)c(-c2cccnc2)c1` [CBK037520] stands 126.087; under `CC(C)C(NC(=O)c1cc2c([nH]c1=O)CCC2)c1ccc(F)cc1` (stereo not drawn) [CBK281662], 81.8291.
With `O=C(N/N=C/c1ccccc1O)c1cccc(C(=O)N/N=C/c2ccccc2O)n1` [CBK261459], the “% of control remaining” value came out at 88.6073.
For `O=C(CCN1CCN(CCO)CC1)Nc1ccc2c(c1)CCC2` [CBK264262C] the value was 99.0628; for `CN1CCN(S(=O)(=O)c2ccc(N3CCOCC3)nc2)CC1` [CBK062434], 117.977.
For `c1ccc2sc(SCc3nc4c5c6c(sc5ncn4n3)CCCC6)nc2c1` [CBK262923] the value was 94.8245; for `CCN(CCc1ccccn1)S(=O)(=O)c1ccc(OC(F)(F)F)cc1` [CBK044968], 43.1313; for `O=S(=O)(NCC(c1ccccc1)n1cc(-c2ccccc2)nn1)c1ccccc1` (stereo not drawn) [CBK268244], 112.186.
